Measured values reported in PubChem BioAssay (NCI).
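Assay format: 96-well plates, 48-hour exposure. GI50 = concentration required for 50% inhibition of growth.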 For part of its entries the source gives two or more results. This list holds those alone. The source may hold further records. For some assays here: The values listed for one entry are repeats (runs, samples, wells, individuals or studies). A tag in brackets gives the origin of a value. Letters count within one entry.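 Definition used: TGI = concentration required for complete inhibition of growth.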 For some assays here: A record mostly stands for its own series of concentrations, which the source does not state; some values may only mark the edge of a range.

What was measured:
Assay in all cases: NCI anticancer screen, dose series, 48 h
[1] = system: CCRF-CEM leukemia
[2] = system: COLO 205 colon
[3] = system: K-562 leukemia
[4] = system: MOLT-4 leukemia
[5] = system: HOP-92 NSCLC
[6] = system: NCI-H522 lung
[7] = system: RPMI-8226 leukemia
[8] = system: RXF 393 renal
[9] = system: SNB-75 CNS
[10] = system: T-47D breast
[11] = system: UACC-257 melanoma
[12] = system: A549 NSCLC
[13] = system: DU-145 prostate
[14] = system: HCC-2998 colon
[15] = system: HOP-62 NSCLC
[16] = system: KM12 colon
[17] = system: M14 melanoma
[18] = system: MALME-3M melanoma
[19] = system: OVCAR-3 ovarian
[20] = system: OVCAR-8 ovarian
[21] = system: SR leukemia
[22] = system: TK-10 renal
[23] = system: HT29 colon
[24] = system: SK-MEL-2 melanoma

## O=C1C(Br)=C(Br)C(=O)c2ccccc21
[1]
  TGI: > 100 µM [sample A, 1 test] and 5.75 µM [sample B, mean of 2 tests]
[2]
  GI50: > 100 µM [sample A, 1 test] and 2.96 µM [sample B, mean of 3 tests]
  TGI: > 100 µM [sample A, 1 test] and 7.34 µM [sample B, mean of 3 tests]
[3]
  GI50: > 100 µM [sample A, 1 test] and 2.89 µM [sample B, mean of 3 tests]
[4]
  TGI: 90.2 µM [sample A, 1 test] and 4.23 µM [sample B, mean of 3 tests]

## c1ccc2cc(C[n+]3ccn(Cc4ccc5ccccc5n4)c3)ccc2c1
[5]
  TGI: 671 nM [sample A, 1 test] and 8.82 µM [sample B, 1 test]
[6]
  TGI: 986 nM [sample A, 1 test] and 12.4 µM [sample B, 1 test]
[7]
  TGI: 827 nM [sample A, 1 test] and 12.9 µM [sample B, 1 test]
[8]
  GI50: 417 nM [sample A, 1 test] and 4.56 µM [sample B, 1 test]
[9]
  GI50: 198 nM [sample A, 1 test] and 2.25 µM [sample B, 1 test]
  TGI: 891 nM [sample A, 1 test] and 11.6 µM [sample B, 1 test]
[10]
  TGI: 823 nM [sample A, 1 test] and 16.7 µM [sample B, 1 test]
[11]
  TGI: 808 nM [sample A, 1 test] and 9.94 µM [sample B, 1 test]

## Cc1c2oc3c(C)cc(F)c(C(=O)NC4C(=O)NC(C(C)C)C(=O)N5CCCC5C(=O)N(C)CC(=O)N(C)C(C(C)C)C(=O)OC4C)c3nc-2c(C(=O)NC2C(=O)NC(C(C)C)C(=O)N3CCCC3C(=O)N(C)CC(=O)N(C)C(C(C)C)C(=O)OC2C)c(N)c1=O (stereo not given)
[12]
  TGI: 2.22 µM and 25 µM
[13]
  TGI: 8.47 µM and > 100 µM
[14]
  TGI: 519 nM and > 100 µM
[15]
  TGI: 1.71 µM and 22.1 µM
[3]
  TGI: 13.9 nM and 2.36 µM
[16]
  TGI: 251 nM and 98.5 µM
[17]
  TGI: 1.8 µM and > 100 µM
[18]
  TGI: 255 nM and 2.98 µM
[19]
  TGI: 1.86 µM and > 100 µM
[20]
  TGI: 3.49 µM and > 100 µM
[7]
  TGI: 7.66 nM and > 100 µM
[21]
  TGI: 71 nM and > 100 µM
[22]
  TGI: 9.34 µM and > 100 µM
[11]
  TGI: 201 nM and 12 µM

## COc1cc2c(c(OC)c1OC)-c1ccc(SC)c(=O)cc1[C@@H](NC(=O)c1ccc([N+](=O)[O-])cc1)CC2
[15]
  TGI: 25 µM and 50.9 nM
[23]
  TGI: 7.05 nM and 10.1 µM
[17]
  TGI: 7.94 nM and 8.53 µM
[4]
  TGI: 9.22 µM and > 100 µM
[8]
  TGI: 25 µM and 1.53 µM
[24]
  TGI: 882 nM and 26.3 µM
[9]
  TGI: 1.29 µM and > 100 µM
[11]
  TGI: 9.44 µM and > 100 µM
